Hit rate of the full screen: of about 310,000 compounds, about 2,200 (0.71%) showed an effect of 50% or more. The effect is printed as a negative number. Some of the results follow.
Biological target: human ether-à-go-go-related gene (hERG) potassium channel (human, UniProt Q12809)
Test: primary screen, population patch clamp on CHO cells stably expressing hERG

human ether-à-go-go-related gene (hERG) potassium channel, sequence (Q12809 whole entry, looked up): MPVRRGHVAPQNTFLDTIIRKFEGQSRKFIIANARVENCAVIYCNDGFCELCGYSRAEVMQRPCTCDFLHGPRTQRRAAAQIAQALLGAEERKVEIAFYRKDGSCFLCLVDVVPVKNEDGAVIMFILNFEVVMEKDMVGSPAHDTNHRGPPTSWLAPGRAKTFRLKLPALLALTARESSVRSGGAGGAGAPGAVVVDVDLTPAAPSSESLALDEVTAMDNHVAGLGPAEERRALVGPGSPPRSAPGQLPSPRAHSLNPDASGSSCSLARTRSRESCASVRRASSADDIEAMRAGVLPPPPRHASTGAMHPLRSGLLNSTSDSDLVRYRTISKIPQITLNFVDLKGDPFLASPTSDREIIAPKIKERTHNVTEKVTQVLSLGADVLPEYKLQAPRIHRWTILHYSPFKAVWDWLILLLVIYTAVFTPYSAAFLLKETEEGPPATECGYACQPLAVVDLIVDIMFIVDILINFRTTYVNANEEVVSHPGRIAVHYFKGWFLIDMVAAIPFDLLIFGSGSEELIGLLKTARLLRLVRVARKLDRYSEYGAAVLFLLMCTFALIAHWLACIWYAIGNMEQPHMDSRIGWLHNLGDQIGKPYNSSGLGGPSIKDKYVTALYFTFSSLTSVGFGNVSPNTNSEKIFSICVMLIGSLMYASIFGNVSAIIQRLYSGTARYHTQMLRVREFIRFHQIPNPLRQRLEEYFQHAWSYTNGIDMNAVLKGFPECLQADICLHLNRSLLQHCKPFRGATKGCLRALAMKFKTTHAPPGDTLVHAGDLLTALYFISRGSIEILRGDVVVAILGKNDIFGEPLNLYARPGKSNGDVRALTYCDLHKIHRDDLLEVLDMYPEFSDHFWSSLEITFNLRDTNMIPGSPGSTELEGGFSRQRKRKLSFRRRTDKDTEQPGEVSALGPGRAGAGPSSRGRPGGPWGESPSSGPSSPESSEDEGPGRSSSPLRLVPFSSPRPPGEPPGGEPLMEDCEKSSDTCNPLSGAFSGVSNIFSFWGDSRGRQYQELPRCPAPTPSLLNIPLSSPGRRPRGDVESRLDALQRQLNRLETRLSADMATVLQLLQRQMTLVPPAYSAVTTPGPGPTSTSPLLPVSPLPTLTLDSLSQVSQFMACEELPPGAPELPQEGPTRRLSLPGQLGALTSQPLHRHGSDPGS

| Compound | hERG current change (%, negative = inhibition) at 1uM |
| --- | --- |
| CCOc1ccc(CN2CCN(Cc3cnc(-c4ccccc4)s3)CC2CCO)cc1 (stereo not drawn) | -90.1% |
| CCC(C)(O)c1[nH]c2ccc(C(F)(F)F)cc2c1C (stereo not drawn) | 19.3% |
| CC(O)c1cccc(N=Cc2ccc3ccccc3c2O)c1 (stereo not drawn) | 15.6% |
| CN(C)C(=N)N=C(N)N.Cl | 14.8% |
| C/C(=N\Nc1cc(C)nc(-c2ccccc2O)n1)c1ccccc1 | 11.1% |
| COCCOC(=O)c1c(C)n(C)c2ccc(OC(=O)N3CCOCC3)cc12 | 3.62% |
| C=CCN(c1ccccc1)S(=O)(=O)c1cccc(C(=O)NCC2CCCO2)c1 (stereo not drawn) | -0.421% |
| COc1ccc(/C=C/C(=O)OCC(=O)Nc2cc(C(F)(F)F)ccc2Cl)cc1 | -4.25% |
| Cc1cccc(NC(=O)NC2CC(=O)N(c3ccc4c(c3)OCCO4)C2)n1 (stereo not drawn) | 7.82% |
| CCC(C)C(=O)N1c2ccccc2C(=C2SC(C(=O)OC)=C(C(=O)OC)S2)C(=S)C1(C)C (stereo not drawn) | 2.74% |
| Nn1c(SCC(=O)NCC2CCCO2)nnc1-c1ccc(OC(F)F)cc1 (stereo not drawn) | -24.9% |
| c1ccc(Nc2cc(Nc3ccccc3)[nH]n2)cc1 | 3.66% |
| CC1(C)CC(=O)C2=C(C1)OC(N)=C(C#N)C2c1ccc2c(c1)OCO2 (stereo not drawn) | 5.79% |
| COc1ccc(NC(=O)NCCCN2CCCC2=O)cc1 | 5.78% |
| NC(=O)[C@@H]1CC2(CC(c3cccc(NC(=O)CC(c4ccccc4)c4ccccc4)c3)=NO2)CN1C(=O)[C@@H]1CCC(=O)N1 (stereo partly drawn) | 0.0108% |
| Cc1cc(C(=O)CN2C(=O)C(=O)N(Cc3ccco3)C2=O)c(C)n1CCc1ccccc1 | 4.99% |
| COc1ccc(C(CNC(=O)C(CCSC)NC(=O)c2ccccc2OC)N2CCCCC2)cc1 (stereo not drawn) | 3.85% |
| COCCN(Cc1ccccc1)C(=O)c1ccc2c(=O)n3c(nc2c1)CCC3 | -6.57% |
| COc1ccccc1NC(=O)NCC(=O)Nc1ccc(F)c(F)c1 | 5.97% |
| Cc1cc(C)nc(SC2CC(=O)N(c3ccc(Br)cc3)C2=O)n1 (stereo not drawn) | 9.87% |
| O=C(CCCN1CCC(NC(=O)c2ccccc2)CC1)c1ccc(Cl)cc1 | -59.5% |
| O=C(NCC(NS(=O)(=O)OCC(Cl)(Cl)Cl)c1ccccc1)C(F)(F)F (stereo not drawn) | 7.85% |
| COc1cc(OC)cc(-c2nc(=S)n3ccsc3n2)c1 | 12.4% |
| Cc1ccc(-c2cn(C[C@H]3CC[C@@H]([C@@H]4CC[C@H](Cn5cc(-c6ccc(C)cc6)nn5)O4)O3)nn2)cc1 | 0.937% |

Source: article PMC4336329 (PLoS ONE, 2015)
